# Experimental data taken from PMC4336329 (PLoS ONE, 2015).
# About 14,000 (4.5%) of roughly 310,000 compounds showed an effect of 50% or more. The effect is printed as a negative number. This is one part of the list.
# Biological target: human ether-à-go-go-related gene (hERG) potassium channel (human, UniProt Q12809)
# Test: primary screen, population patch clamp on CHO cells stably expressing hERG
# 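Note: peak tail current of the secondary pulse compared with the same well before compound.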
# Chain of human ether-à-go-go-related gene (hERG) potassium channel (Q12809 whole entry, looked up): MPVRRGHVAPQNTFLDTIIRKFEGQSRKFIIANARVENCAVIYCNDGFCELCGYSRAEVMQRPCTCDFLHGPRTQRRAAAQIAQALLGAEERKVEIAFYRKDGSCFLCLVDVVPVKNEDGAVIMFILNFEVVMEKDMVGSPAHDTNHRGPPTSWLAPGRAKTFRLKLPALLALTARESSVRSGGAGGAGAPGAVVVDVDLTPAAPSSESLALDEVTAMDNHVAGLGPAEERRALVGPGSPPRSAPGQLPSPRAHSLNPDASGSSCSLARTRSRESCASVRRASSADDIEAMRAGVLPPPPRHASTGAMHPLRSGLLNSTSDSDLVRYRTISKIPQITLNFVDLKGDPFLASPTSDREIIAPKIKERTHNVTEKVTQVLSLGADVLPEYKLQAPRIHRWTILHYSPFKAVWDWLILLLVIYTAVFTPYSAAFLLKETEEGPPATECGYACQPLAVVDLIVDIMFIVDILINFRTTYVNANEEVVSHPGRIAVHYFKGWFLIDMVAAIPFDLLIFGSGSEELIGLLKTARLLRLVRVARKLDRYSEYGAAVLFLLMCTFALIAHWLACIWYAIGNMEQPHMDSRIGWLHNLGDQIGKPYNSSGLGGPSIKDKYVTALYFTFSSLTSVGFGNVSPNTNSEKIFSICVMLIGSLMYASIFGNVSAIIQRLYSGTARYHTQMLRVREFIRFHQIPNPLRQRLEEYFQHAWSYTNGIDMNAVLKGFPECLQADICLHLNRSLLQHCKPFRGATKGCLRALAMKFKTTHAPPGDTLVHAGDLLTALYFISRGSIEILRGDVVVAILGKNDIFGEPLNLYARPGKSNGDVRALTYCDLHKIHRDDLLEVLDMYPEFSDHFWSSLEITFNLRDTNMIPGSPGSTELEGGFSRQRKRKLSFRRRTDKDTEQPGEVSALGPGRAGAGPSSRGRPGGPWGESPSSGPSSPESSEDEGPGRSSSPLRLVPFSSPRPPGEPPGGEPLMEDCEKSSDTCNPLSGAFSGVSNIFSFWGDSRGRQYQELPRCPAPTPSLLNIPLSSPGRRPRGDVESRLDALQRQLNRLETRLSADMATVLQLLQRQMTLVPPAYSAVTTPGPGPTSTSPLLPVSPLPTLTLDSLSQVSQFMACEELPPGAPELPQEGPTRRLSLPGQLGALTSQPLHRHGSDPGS
row,SMILES,"hERG current change (%, negative = inhibition) at 10uM [%]"
1,c1ccc(SCCc2ccncc2)cc1,7.49
2,CS(=O)(=O)NCCSCc1ccc(Cl)cc1,-6.98
3,CCC(C)[C@H]1CNC(=S)N1CCC12CC3CC(CC(C3)C1)C2 (some centres unmarked),4.73
4,COC(=O)CCCC(=O)NC1CCCN(C2Cc3ccccc3C2)C1 (centres unmarked),-10.6
5,Fc1ccc(-c2nnc(SCc3ncc(-c4ccccc4)o3)n2CC2CCCO2)cc1 (centres unmarked),-35.3
6,Cc1ccc(OCC(=O)N/N=C/c2ccncc2)cc1,-17.4
7,O=C(NC(=O)c1cc(OCC(F)(F)F)ccc1OCC(F)(F)F)Nc1ccccc1,7.54
8,CNC(=O)c1c(NC(=O)c2ccc(N3C(=O)CCC3=O)cc2)sc2c1CCCC2,-13.3
9,CC1Cc2ccccc2N1S(=O)(=O)c1cccc(C(=O)NCc2ccccn2)c1 (centres unmarked),-67.6
10,CCN(CC(=O)Nc1cc(Cl)ccc1C)C(=O)CCc1nc2ccccc2c(=O)[nH]1,-67.3
11,CCc1nonc1NC(=O)c1oc2cc(Br)ccc2c1C,20.4
12,COc1ccc(S(=O)(=O)N2CCN(C(=O)c3ccc4ccccc4n3)CC2)cc1,-21
13,CCN(CC)C(=O)Cn1cc(C(=O)C(=O)N2CCc3ccccc32)c2ccccc21,24.3
14,COc1ccc(-c2[nH]ncc2CN(C)CCCN2CCOCC2)cc1F,-2.52
15,O=S(=O)(c1ccc2ccccc2c1)N1CCN(C(=S)Nc2ccc(F)c(Cl)c2)CC1,-5.04
16,O=C(Nc1nc(-c2cccs2)c(-c2cccs2)s1)C1(c2ccccc2)CC1,4.96
17,N/C(=N\OC(=O)COc1ccccc1)c1cccnc1,-3.92
18,O=C(Nc1cccc(C(F)(F)F)c1)C1CCN(S(=O)(=O)c2ccc(N3CCCC3=O)cc2)CC1,-13.5
19,CC1(C)NC(=O)N(CCCOc2ccc(Br)cc2Cl)C1=O,-49.5
20,COc1cc(C=O)ccc1OCCOc1ccccc1[N+](=O)[O-],-6.53
21,COc1ccc(C(=O)N/C(=C\c2cccs2)C(=O)N2CCN(C)CC2)cc1OC,-56.4
22,COc1ccc(Nc2nnc(-c3ccncc3)s2)cc1Cl,21

row,SMILES,"hERG current change (%, negative = inhibition) at 10uM [%]"
1,COC(=O)Cn1cnc2c(nnn2-c2cccc(OC)c2)c1=O,11.4
2,CN1CCN(c2ccccc2NC(=O)Cn2ncc3c([nH]c4ccccc43)c2=O)CC1,-38.8
3,COCCOc1cnn(-c2cc(Oc3ccc(C)cc3)ncn2)c(=O)c1Cl,-5.86
4,Cc1nonc1OCCNc1ccc([N+](=O)[O-])cc1,-40.7
5,CN(CC(=O)Nc1ccc(N2CCOCC2)cc1)C(=O)CSc1ccc(Br)cc1,13.3
6,CCCNc1c(N)c(=O)oc2ccccc12,-13.6
7,Nc1nnc(SCC(=O)OCC(=O)c2ccccc2)s1,15.4
8,CCOC(=O)c1ccc(NC(=O)c2ccc(C)c(S(=O)(=O)N3CCOCC3)c2)cc1,-33.4
9,CCN(CC)CCNC(=O)c1ccc(NC(=O)c2ccc(F)cc2)cc1,-43.6
10,Brc1cc2c(cc1-c1nc3ccccc3s1)OCO2,24.4
11,Cc1ccc(S(=O)(=O)NCC2CCCO2)cc1 (centres unmarked),7.63
12,C1COCCO1.Cc1cc(C)c2nc(Nc3nc(-c4ccccc4)cc(=O)[nH]3)nc(C)c2c1,4.27
13,COc1ccc(CCC(=O)Nc2cccc(Cl)c2)cc1,-1.25
14,Cc1cc(NC(=O)CCC(=O)N(c2ccccc2)C(C(=O)NC2CCCC2)c2ccccc2F)no1 (centres unmarked),-7.04
15,Cl.O=C(OCCN1CCOCC1)c1cccc(F)c1,10.8
16,CCCCNC(=O)N1CCN(C(=O)C2CCCO2)CC1 (centres unmarked),9.68
17,C=CCNC(=O)N1c2ccccc2Sc2ccccc21,-18.8
18,COc1ccc(OC)c(CN2CCC(C(=O)N3CCOCC3)CC2)c1.O=C(O)C(=O)O,19.9
19,CCCCN1C(=O)C(CC(=O)NCC)SC1=Nc1ccccc1 (centres unmarked),-2.34
20,Cn1cc(C(=O)c2ccc(Cl)cc2Cl)cc1C(=O)NN,17.4
21,COc1ccc(NC(=O)c2ccco2)c([N+](=O)[O-])c1,-11.4
22,C=CCNC(=S)N1CCC(C(=O)c2ccc3c(c2)OCCO3)CC1,-8.17

row,SMILES,"hERG current change (%, negative = inhibition) at 10uM [%]"
1,COC(=O)[C@@H]1CC[C@H](C)[C@@H](c2ccc(C)cc2)N1C(=O)c1ccc(/C=N/O[C@@H](C)c2cn([C@H](CO)Cc3ccccc3)nn2)cc1,5.85
2,CCCOc1ccc(/C=C/C(=O)Nc2ccc([N+](=O)[O-])cc2C)cc1OC,-0.0933
3,O=C(NCc1ccccc1)/C(=C\c1ccc([N+](=O)[O-])cc1)NC(=O)c1ccco1,-60.9
4,COc1ccc2[nH]c(=S)cc(C)c2c1,21.2
5,Clc1ccc(-c2nc(NCCN3CCOCC3)c3ccccc3n2)cc1,-15.6
6,Cc1ccc(S(=O)(=O)Oc2ccccc2/C=N/NC(=O)c2c(Cl)cnn2C)cc1,-7.58
7,COc1ccccc1C(=O)N1CCN(C2CCN(Cc3ccccc3)CC2)CC1,-23.2
8,COc1ccc(-c2csc(NC(=O)c3ccc(S(=O)(=O)N4CCc5ccccc5C4)cc3)n2)c(OC)c1,23
9,CSc1ncc(/C=C2/C(=O)NC(=O)N(c3ccc(C)cc3)C2=O)cn1,4.71
10,O=C(c1ccc(Cl)cc1)c1ccc(OCC(O)CN2CCOCC2)cc1 (centres unmarked),-19.7
11,O=C(Nc1nnc(CCN2CCCCC2)s1)c1ccccc1Cl,13.3
12,COc1ccc(N2CCN(CC(=O)N3CCC(C)CC3)CC2)cc1,-5.05
13,COc1cccc(Cl)c1NC(=O)N1CCN(c2ccnc3cc(Cl)ccc23)CC1,-44.1
14,Cc1cc(C)c(Cn2cnc(-c3ccc([N+](=O)[O-])cc3)c2)c(C)c1,0.488
15,S=C1NCCOCCOCCNC(=S)N2CCOCCOCCN1CCOCCOCC2,5.22
16,COc1ccc2c(C)c(Cc3ccccc3)c(=O)oc2c1OC,7.31
17,CCc1ccc(OCCOCCN2CCN(C)CC2)cc1.O=C(O)C(=O)O,4.8
18,CC(C)OCCCNC(=O)C(NS(=O)(=O)c1ccc2c(c1)c(=O)n(C)c(=O)n2C)c1ccccc1 (centres unmarked),24.7
19,CCOc1cccc(C2C(C#N)=C(N)Oc3cc(C)[nH]c(=O)c32)c1OCC (centres unmarked),-1.21
20,Cc1ccc(-c2csc(NC(=O)N3CCOCC3)n2)cc1,-14.3
21,COc1ccc(C(=O)OCC(=O)Nc2cc(C)on2)c(OC)c1OC,15.9
22,CSCCC1NC2(C(=O)Nc3ccc(Cl)cc32)[C@@H]2C(=O)N(C3CCCC3)C(=O)[C@H]12 (some centres unmarked),-8.3

row,SMILES,"hERG current change (%, negative = inhibition) at 10uM [%]"
1,O=C(NC1CCCN(Cc2ccc(Cl)cc2)C1)c1ccoc1 (centres unmarked),-50.1
2,CCOC(=O)N1CCN(c2nnc(-c3ccccc3)c3ccccc23)CC1,-22
3,Cc1cccc(-n2ncc3c(Nc4c(C)n(C)n(-c5ccccc5)c4=O)ncnc32)c1,-4.79
4,Cc1cccc(C)c1OCc1cc(C(=O)N(C)Cc2nc3ccccc3[nH]2)no1,-70.6
5,O=C(CSc1nc2ccccc2c2nc3ccccc3n12)NCc1ccco1,-8.55
6,CC(=O)c1ccc(Sc2ccccc2)cc1,2.63
7,CCOC(=O)c1cc(C(=O)c2cccs2)n2ccc(C(C)=O)cc12,13.9
8,O=C(Nc1ccccc1C(=O)N1CCCC1)c1ccccc1,4.09
9,CC(=O)OCC(=O)[C@@]1(O)CC[C@H]2[C@@H]3CCC4=CC(=O)CC[C@]4(C)[C@H]3[C@@H](O)C[C@@]21C,-2.73
10,COc1cc(Nc2ccc(S(=O)(=O)N3CCN(C)CC3)cc2[N+](=O)[O-])cc(OC)c1,-28.6
11,CCC(C)c1ccccc1NC(=O)C(C)OC(=O)CN1C(=O)NC(C)(C)C1=O (centres unmarked),2.51
12,O=C(/C=C/c1ccccc1)C1=C(O)C(=O)N(CCO)C1c1cccc([N+](=O)[O-])c1 (centres unmarked),21.3
13,CC(=O)c1c(COC(=O)c2ccc(Cl)cc2)nc2ccccc2[n+]1[O-],2.71
14,COC(=O)C1=C(C)N(CC2CC2)C(=O)N[C@H]1c1ccccc1,8.11
15,COc1ccc(NC(=O)CSc2nnc(Cn3nnc4ccccc43)n2C)cc1,2.27
16,CCc1ccccc1N(C)S(=O)(=O)c1ccc(-c2cc(C)no2)s1,11.8
17,O=c1[nH]c(Nc2nc3ccccc3o2)nc2c1CCCC2,9.44
18,O=C(CCNC(=O)c1ccc(Cl)cc1)NCc1cccc(C(F)(F)F)c1,-8.98
19,Cc1cc(C)n2nc3nc(N4CCCCC4)nc(-c4ccco4)c3c2n1,13.5
20,COC(=O)C1=C(C)NC(=S)N(C(C)=O)C1c1ccc(OC)c(OC)c1 (centres unmarked),-3.49
